The whole screen tested about 360,000 compounds, of which about 25,000 (6.9%) were called active. This list was built around the results that the source calls inconclusive (neither active nor inactive); the mix of calls is not that of the screen. Calls come from the whole dose curve; as a rule, active = well fitted inhibition curve with a large enough effect; inconclusive = small, poorly fitted or top-dose-only effect; inactive = flat fitted curve, though single readings scatter. Potencies of inconclusive entries are doubtful fits and often do not repeat.
The compounds below were run against Luciferin 4-monooxygenase (Photinus pyralis) (UniProt P08659) (assay: qHTS profiling assay for firefly luciferase inhibitor/activator using purifed enzyme and Km concentrations of substrates (counterscreen for miR-21 project)). Conditions: purified FLuc, luminescence inhibition; series mostly up to 57.5 µM.
Sequence of UniProt P08659 (P08659 whole entry, looked up): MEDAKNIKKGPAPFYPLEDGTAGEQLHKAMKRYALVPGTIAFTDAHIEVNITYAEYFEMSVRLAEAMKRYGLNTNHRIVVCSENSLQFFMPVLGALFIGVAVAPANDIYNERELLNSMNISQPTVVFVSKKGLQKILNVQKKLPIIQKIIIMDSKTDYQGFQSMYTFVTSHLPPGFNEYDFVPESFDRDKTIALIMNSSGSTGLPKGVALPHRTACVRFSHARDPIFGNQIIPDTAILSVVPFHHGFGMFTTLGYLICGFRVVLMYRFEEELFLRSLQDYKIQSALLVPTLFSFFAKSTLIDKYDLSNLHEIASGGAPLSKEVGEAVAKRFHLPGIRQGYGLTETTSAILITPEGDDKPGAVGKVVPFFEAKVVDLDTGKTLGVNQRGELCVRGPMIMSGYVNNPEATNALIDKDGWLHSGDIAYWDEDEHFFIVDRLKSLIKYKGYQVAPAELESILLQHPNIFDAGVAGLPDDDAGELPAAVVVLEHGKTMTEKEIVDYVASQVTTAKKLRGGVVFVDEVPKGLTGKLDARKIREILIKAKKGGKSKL
Summary of the method: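 Purified P. pyralis luciferase (10nM final) with 10uM D-luciferin and 10uM ATP (Km levels) in 50mM Tris acetate pH 7.5, 10mM Mg acetate, 0.01% Tween-20, 0.05% BSA; qHTS 6-point titration, ~60 µM downward; luminescence read.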
Note: nearly all actives have a fitted effect of over 55% in size.
Potency is the fitted concentration of half-maximal effect; tags give direction and shape of the fitted curve.

Row | SMILES | Potency
1 | Cc1cc(OCC(=O)NC2CCCCC2)ccc1Cl | inconclusive: 21.3 µM [inhibitor, partial curve, poor fit]
2 | Cc1oc(-c2ccccc2F)nc1CS(=O)CC(=O)NC(C)C (stereo not given) | inactive
3 | O=C(CCn1c(=O)oc2ccccc21)N1CCc2ccccc21 | inconclusive: 23.9 µM [inhibitor, partial curve]
4 | CC(C)(CC(=O)O)CC(=O)Nc1ccc(Oc2ccc(C(C)(C)C)cc2)nc1 | inconclusive: 21.3 µM [inhibitor, single point]
5 | COC(=O)C1C2CCC(C2)C1C(=O)OCC(=O)c1ccc(C)cc1 (stereo not given) | inconclusive: 37.9 µM [inhibitor, partial curve, poor fit]
6 | O=C(NCCN1CCCC(O)C1)c1cc(COc2ccc(F)cc2Cl)on1 (stereo not given) | inconclusive: 30.1 µM [inhibitor, partial curve, poor fit]
7 | COc1ccc(CNC(=O)C2COc3ccccc3O2)cc1 (stereo not given) | inconclusive: 19 µM [inhibitor, partial curve]
8 | Cc1cc(C)cc(-n2c(SCC(=O)N3CCC(C)CC3)nc3c([nH]c4ccccc43)c2=O)c1 | inactive
9 | CCOC(=O)C1CCN(C2=NC(=O)/C(=C/c3ccc(O)cc3)S2)CC1 | inconclusive: 26.9 µM [inhibitor, single point]
10 | c1cnc(Oc2ccc3oc4ccccc4c3c2)nc1 | inconclusive: 19 µM [inhibitor, partial curve]
11 | CN(CC(=O)NC(=O)NC1CCCCC1)Cc1ccccc1 | inactive
12 | O=C(CSc1ccccn1)Nc1ccc2ccccc2c1 | active: 4.78 µM
13 | Nn1c(Cc2ccccc2)n[nH]c1=S | inconclusive: 19 µM [inhibitor, partial curve]
14 | COc1cc(/C=C2\SC(N3CCC(C)CC3)=NC2=O)ccc1O | active: 10.7 µM
15 | CCc1cccc2c(C(=O)COC(=O)c3nccnc3N)c[nH]c12 | active: 15.1 µM
16 | COC(=O)c1sccc1NC(=O)c1cccc(OC)c1 | inconclusive: 37.9 µM [inhibitor, partial curve, poor fit]
17 | CSc1nsc(SCC(=O)Nc2ccccc2C(=O)O)n1 | inconclusive: 37.9 µM [inhibitor, partial curve, poor fit]
18 | O=C(NCc1ccccc1Cl)c1cccc(NC2=NC3CS(=O)(=O)CC3S2)c1 (stereo not given) | inactive
19 | Cc1cccc(C(=O)Oc2ccc(/C=N/NC(=O)c3cc(O)cc(O)c3)cc2)c1 | inconclusive: 19 µM [inhibitor, partial curve, poor fit]
20 | COC(=O)/C=C/c1cnc2ccccc2c1 | inconclusive: 26.9 µM [inhibitor, partial curve, poor fit]

Reference: PubChem BioAssay AID588342 (National Center for Advancing Translational Sciences (NCATS), 2011)
